{"source": "paper PMC4336329", "about": "(PLoS ONE, 2015)", "note": "Screen size: about 310,000 compounds; about 14,000 (4.5%) showed an effect of 50% or more. The effect is printed as a negative number. The list shows a part of the results.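 Note: peak tail current of the secondary pulse compared with the same well before compound.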", "data": [{"biological_target": "human ether-à-go-go-related gene (hERG) potassium channel (human, UniProt Q12809)", "sequence (Q12809 whole entry, looked up)": "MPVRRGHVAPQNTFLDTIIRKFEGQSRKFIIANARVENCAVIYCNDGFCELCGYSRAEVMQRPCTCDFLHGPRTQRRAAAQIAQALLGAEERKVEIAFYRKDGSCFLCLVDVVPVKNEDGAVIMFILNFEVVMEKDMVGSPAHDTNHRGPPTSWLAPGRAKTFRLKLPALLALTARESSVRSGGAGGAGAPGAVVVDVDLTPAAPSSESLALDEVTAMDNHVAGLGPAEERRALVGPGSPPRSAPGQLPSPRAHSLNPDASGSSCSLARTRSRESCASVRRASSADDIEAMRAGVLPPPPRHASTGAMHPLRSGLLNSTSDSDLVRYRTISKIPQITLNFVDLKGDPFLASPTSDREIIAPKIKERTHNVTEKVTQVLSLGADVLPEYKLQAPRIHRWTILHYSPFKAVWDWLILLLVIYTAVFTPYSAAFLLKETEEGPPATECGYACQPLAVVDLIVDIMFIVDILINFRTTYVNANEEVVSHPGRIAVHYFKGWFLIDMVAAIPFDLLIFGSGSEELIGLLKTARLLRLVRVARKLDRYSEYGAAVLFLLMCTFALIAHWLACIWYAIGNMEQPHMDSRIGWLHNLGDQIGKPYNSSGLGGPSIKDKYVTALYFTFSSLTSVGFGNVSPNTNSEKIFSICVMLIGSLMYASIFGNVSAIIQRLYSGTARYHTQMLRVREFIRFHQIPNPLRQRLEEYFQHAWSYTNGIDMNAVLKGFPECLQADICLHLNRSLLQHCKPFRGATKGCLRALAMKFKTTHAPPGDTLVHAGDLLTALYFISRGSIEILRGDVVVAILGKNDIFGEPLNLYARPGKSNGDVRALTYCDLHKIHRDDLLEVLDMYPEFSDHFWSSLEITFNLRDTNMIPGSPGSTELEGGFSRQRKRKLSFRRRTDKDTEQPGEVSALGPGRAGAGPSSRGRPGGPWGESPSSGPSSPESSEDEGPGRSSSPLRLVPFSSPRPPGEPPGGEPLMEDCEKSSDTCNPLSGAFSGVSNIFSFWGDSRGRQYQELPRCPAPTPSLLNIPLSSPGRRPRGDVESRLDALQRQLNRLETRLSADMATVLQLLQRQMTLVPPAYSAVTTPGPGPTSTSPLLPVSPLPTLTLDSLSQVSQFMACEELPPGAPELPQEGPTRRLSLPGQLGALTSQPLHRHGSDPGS", "assay": "primary screen, population patch clamp on CHO cells stably expressing hERG", "units": {"hERG current change (%, negative = inhibition) at 10uM": "%"}, "values": [{"smiles": "COc1ccc(Nc2nccc(-c3ccc(C#N)cc3)n2)cc1", "hERG current change (%, negative = inhibition) at 10uM": 1.36}, {"smiles": "COC(=O)CNC(=O)c1cc(-c2ccncc2)nc2ccc(C)cc12", "hERG current change (%, negative = inhibition) at 10uM": -2.87}, {"smiles": "Cc1ccnc(NC(=O)C(Cc2ccccc2)NC(=O)c2ccccc2)c1", "note": "(stereo not drawn)", "hERG current change (%, negative = inhibition) at 10uM": -0.154}, {"smiles": "Cc1ccc(NC(=O)Cn2c(=O)oc3ccccc32)cc1C", "hERG current change (%, negative = inhibition) at 10uM": 18.3}, {"smiles": "O=C(C1CC1)N1CCc2cc(Br)cc(S(=O)(=O)N3CCN(c4ccccn4)CC3)c21", "hERG current change (%, negative = inhibition) at 10uM": -17.5}, {"smiles": "O=C(O)c1ccc2c(c1)C(=O)N(Cc1ccco1)C2=O", "hERG current change (%, negative = inhibition) at 10uM": 24.2}, {"smiles": "O=C(c1cccc(C(F)(F)F)c1)c1c[nH]c(C(=O)NCCCN2CCOCC2)c1", "hERG current change (%, negative = inhibition) at 10uM": -33.6}, {"smiles": "O=C(c1ccc([N+](=O)[O-])cc1)N(Cc1cccs1)C1CCS(=O)(=O)C1", "note": "(stereo not drawn)", "hERG current change (%, negative = inhibition) at 10uM": -50}, {"smiles": "COc1ccc(C(=O)NC(=S)Nc2cccnc2)cc1[N+](=O)[O-]", "hERG current change (%, negative = inhibition) at 10uM": 4.69}, {"smiles": "CCc1ccc(NC2=NCC(c3ccccc3)S2)cc1", "note": "(stereo not drawn)", "hERG current change (%, negative = inhibition) at 10uM": -17.5}, {"smiles": "C/C(=N\\N1CCN(c2ccccc2)CC1)c1ccccc1O", "hERG current change (%, negative = inhibition) at 10uM": 8.08}, {"smiles": "COc1ccc(C2NCCc3[nH]cnc32)cc1", "note": "(stereo not drawn)", "hERG current change (%, negative = inhibition) at 10uM": 8.12}, {"smiles": "N#C/C(C(=O)N1CCOCC1)=C1/SC(Cc2ccccc2Cl)C(=O)N1c1ccccc1", "note": "(stereo not drawn)", "hERG current change (%, negative = inhibition) at 10uM": -23.1}, {"smiles": "COc1ccc(S(=O)CC(=O)Nc2ccc(Cl)cc2Cl)cc1", "note": "(stereo not drawn)", "hERG current change (%, negative = inhibition) at 10uM": -6.26}, {"smiles": "O=C(CN1CCCC1)NN=C(c1ccccc1)c1ccccc1", "hERG current change (%, negative = inhibition) at 10uM": -68.3}, {"smiles": "COc1ccc(OC)c(C(=O)N/N=C/c2ccccn2)c1", "hERG current change (%, negative = inhibition) at 10uM": 8.66}, {"smiles": "C[C@@H]1CC=C[C@H]2[C@H]1C(=O)N(Cc1ccccc1)[C@H]2c1ccoc1", "hERG current change (%, negative = inhibition) at 10uM": 3.54}, {"smiles": "CCc1ccc(OCc2nnc(NC(=O)c3cccs3)s2)cc1", "hERG current change (%, negative = inhibition) at 10uM": 2.52}, {"smiles": "CCCc1c(C(=O)Nc2ccc(F)cc2)cnn1-c1ccccc1", "hERG current change (%, negative = inhibition) at 10uM": 12.5}, {"smiles": "Cc1cc(Nc2ccc(C(=O)O)cc2)n2nc(C)nc2n1", "hERG current change (%, negative = inhibition) at 10uM": -1.96}, {"smiles": "CC(C)OC(=O)/C(C#N)=C/c1cn(C)c2ccccc12", "hERG current change (%, negative = inhibition) at 10uM": -0.828}, {"smiles": "CCOC(=O)Cn1c(C)c(C#N)c2ccccc21", "hERG current change (%, negative = inhibition) at 10uM": 4.19}, {"smiles": "COc1ccccc1Nc1nc(C)nc2c1oc1ccccc12.Cl", "hERG current change (%, negative = inhibition) at 10uM": -8.48}, {"smiles": "CN(CC1CCOCC1)C(=O)CC1C(=O)NCCN1Cc1cccc(F)c1", "note": "(stereo not drawn)", "hERG current change (%, negative = inhibition) at 10uM": 14.8}, {"smiles": "O=C(OC(C(=O)NC1CCCC1)c1ccncc1)C1=Cc2ccccc2OC1", "note": "(stereo not drawn)", "hERG current change (%, negative = inhibition) at 10uM": -2.88}, {"smiles": "Cc1ccccc1CC(=O)N1CCCC(CCC(=O)N2CCN(c3ccccn3)CC2)C1", "note": "(stereo not drawn)", "hERG current change (%, negative = inhibition) at 10uM": 5.88}, {"smiles": "O=C(c1cc2ccccc2oc1=O)N1CCN(c2ncccn2)CC1", "hERG current change (%, negative = inhibition) at 10uM": 8.16}, {"smiles": "Cc1ccc([N+](=O)[O-])cc1N=Nc1c(C)[nH]n(C(N)=S)c1=O", "hERG current change (%, negative = inhibition) at 10uM": 19.4}, {"smiles": "CC(=O)NCCNc1ccc([N+](=O)[O-])cc1C#N", "hERG current change (%, negative = inhibition) at 10uM": 21.4}, {"smiles": "COc1ccc(-c2csc(/C(C#N)=C(\\O)CSc3nccn3C)n2)cc1OC", "hERG current change (%, negative = inhibition) at 10uM": -10}, {"smiles": "O=C(CN1C(=O)c2ccccc2C1=O)NCC(=O)OCC(=O)c1cccc([N+](=O)[O-])c1", "hERG current change (%, negative = inhibition) at 10uM": 0.444}, {"smiles": "O=C(CSC1CC(=O)N(c2ccc(C(=O)O)cc2)C1=O)Nc1ccc2ccccc2c1", "note": "(stereo not drawn)", "hERG current change (%, negative = inhibition) at 10uM": 15.8}, {"smiles": "CCCCOc1cccc(-c2nnc(NC(=O)CSc3ccc(C)cc3)s2)c1", "hERG current change (%, negative = inhibition) at 10uM": -6.23}, {"smiles": "COC(=O)C1CCN(c2nc3ccccc3nc2C(C#N)C(=O)NCCc2ccccc2)CC1", "note": "(stereo not drawn)", "hERG current change (%, negative = inhibition) at 10uM": 3.84}, {"smiles": "O=C(O)C1CCN(S(=O)(=O)c2cccs2)CC1", "hERG current change (%, negative = inhibition) at 10uM": 14.7}, {"smiles": "COc1ccc(N(CC(=O)NC2CC3CCC2C3)S(=O)(=O)c2ccccc2)cc1Cl", "note": "(stereo not drawn)", "hERG current change (%, negative = inhibition) at 10uM": -19.4}, {"smiles": "Cc1ccc(S(=O)(=O)N2CN(CC3CCCO3)c3nc4ccccc4nc32)c(C)c1", "note": "(stereo not drawn)", "hERG current change (%, negative = inhibition) at 10uM": 16.9}, {"smiles": "Cc1ccc(C(=O)Nc2nc3ccccc3n3nnnc23)cc1", "hERG current change (%, negative = inhibition) at 10uM": -20.6}, {"smiles": "Cc1ccc(SCc2cc(=O)c3c(=O)n(-c4ccccc4)[nH]c3[nH]2)cc1", "hERG current change (%, negative = inhibition) at 10uM": 7.34}, {"smiles": "CCc1ccccc1N1C(=O)C2CC=CCC2C1=O", "note": "(stereo not drawn)", "hERG current change (%, negative = inhibition) at 10uM": -6.41}, {"smiles": "Cc1cccc(-c2cc(C(=O)Nc3sc(C)c(C)c3C(N)=O)c3ccccc3n2)c1", "hERG current change (%, negative = inhibition) at 10uM": 3.87}, {"smiles": "Cc1cccc(C)c1Nc1c(-c2ccccc2O)nc2ncccn12", "hERG current change (%, negative = inhibition) at 10uM": 16.7}, {"smiles": "CCc1ccccc1Oc1coc2cc(O)ccc2c1=O", "hERG current change (%, negative = inhibition) at 10uM": -2.67}, {"smiles": "CC(Sc1nnc(-c2ccco2)n1C)C(=O)N(C)C1CCCCC1", "note": "(stereo not drawn)", "hERG current change (%, negative = inhibition) at 10uM": 6.7}, {"smiles": "COc1ccccc1-c1nc(C#N)c(NCc2ccc(F)cc2)o1", "hERG current change (%, negative = inhibition) at 10uM": -9.48}, {"smiles": "CCC1S/C(=N/N=C/c2ccco2)N(c2ccc(F)cc2)C1=O", "note": "(stereo not drawn)", "hERG current change (%, negative = inhibition) at 10uM": 3.46}, {"smiles": "O=C(c1csc2c1CCCCC2)N1CCN(c2ncccn2)CC1", "hERG current change (%, negative = inhibition) at 10uM": -4.41}, {"smiles": "COc1ccc(OC)c(N2Cc3cc(C)c(C)cc3C2)c1", "hERG current change (%, negative = inhibition) at 10uM": 1.91}, {"smiles": "CCn1c(=O)c(=O)n(CC)c2cc(S(=O)(=O)Nc3cc(C)ccc3C)ccc21", "hERG current change (%, negative = inhibition) at 10uM": -21.6}, {"smiles": "NC(=O)/C(N=Nc1ccccc1)=N/Nc1ccccc1", "hERG current change (%, negative = inhibition) at 10uM": 4.74}, {"smiles": "CCC1=NN(C(=O)c2ccc(C)cc2)C(O)(c2ccc(Br)cc2)C1", "note": "(stereo not drawn)", "hERG current change (%, negative = inhibition) at 10uM": -10.7}, {"smiles": "N=P(N1CCOCC1)(N1CCOCC1)C12CC3CC(CC(C3)C1)C2", "hERG current change (%, negative = inhibition) at 10uM": 14.7}, {"smiles": "O=C(Nc1ccccc1)OCCNC(=O)c1ccccc1", "hERG current change (%, negative = inhibition) at 10uM": -6.55}, {"smiles": "CCS(=O)(=O)N1N=C(c2cccc(NS(C)(=O)=O)c2)CC1c1ccccc1", "note": "(stereo not drawn)", "hERG current change (%, negative = inhibition) at 10uM": -16.9}, {"smiles": "CN(C)C(=O)CSc1ccccc1C(=O)OCC(=O)NC1CC1", "hERG current change (%, negative = inhibition) at 10uM": 2.87}, {"smiles": "NC(=O)CCn1c(C(=O)c2ccc(Cl)cc2)c2ccccc2[n+]1[O-]", "hERG current change (%, negative = inhibition) at 10uM": -23.7}, {"smiles": "COc1ccc(OC)c(S(=O)(=O)Nc2ccccc2C(=O)O)c1", "hERG current change (%, negative = inhibition) at 10uM": 6.5}]}]}
